Laboratory results: PMC12136788
Numbering of substitutions follows the chain as printed. The list shows a part of the results.

T1: UNK ZnF1-6 (called full-length) (human, UniProt Q9C0B0 30-357)
T1 sequence: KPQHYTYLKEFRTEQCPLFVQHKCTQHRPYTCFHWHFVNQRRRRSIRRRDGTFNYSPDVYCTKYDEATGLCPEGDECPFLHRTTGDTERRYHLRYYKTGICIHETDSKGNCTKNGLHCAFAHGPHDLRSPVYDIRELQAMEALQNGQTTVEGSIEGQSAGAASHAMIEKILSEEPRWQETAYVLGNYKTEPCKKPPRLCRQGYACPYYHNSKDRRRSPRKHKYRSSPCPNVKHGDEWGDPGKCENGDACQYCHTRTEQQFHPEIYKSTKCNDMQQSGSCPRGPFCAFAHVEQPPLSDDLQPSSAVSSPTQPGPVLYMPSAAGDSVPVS

B1: chr7:94537565:94537673:+|CDS|ENSG00000127995|unk|FALSE|unique (ssRNA)
RNA: GGGAGUUCUACAGUCCGACGAUCGAAGCCUGUAGAUGGGUCCUGUUGUCAACCUCGGCCUCCUGUUACUCUCAUACAGAAGCUAGCUGCUUGUUUUUUCACUUUAUCUAUUAUCGGAUAUUUAAUUUUUUACAUAAUUCAUCGCAACAGAGGAUUGAGCAUCA
B2: chr12:133218311:133218884:-|three_prime_utr|ENSG00000227059|control|control|control (ssRNA)
RNA: GGGAGUUCUACAGUCCGACGAUCAGAGUUCCCCUGGGGGCUCUGCUGAAAAGCAGAGAUUCUUUCCCACUGCCAUGUUUGAAUAGUUUGGUUAGCAAUUCCCUGUAGUAGAGAAAGCAUUUGAGAAAUGUUCGUGAGAUCAGACAACAGAGGAUUGAGCAUCA
B3: chr10:63214216:63214317:-|CDS|ENSG00000171988|unk|FALSE|unique (ssRNA)
RNA: GGGAGUUCUACAGUCCGACGAUCUAAGCUGCAUAAGCGAAGUCCACCUCCAGAGACUAUAAAAUCUAAACUUAAUACUUCAGUAGAUACUCACAAGAUAAAAUCCAGCCCAUCACCUGAAGUUGUUAAACCCAAAAUAACUCACAACAGAGGAUUGAGCAUCA
B4: chr1:202941098:202941199:-|3pUTR|ENSG00000159346|msi1_unk|total|mutant (ssRNA)
RNA: GGGAGUUCUACAGUCCGACGAUCCCUCCCUUACCCCCAUCCUUAACUUUGUAUCCUGGCUUAUAACAGGCCAUCCAUUUUUGCCGCACACUUUUCAAAAACAAUUAUAUACCCUGGUCCCAUCUUUCCCGGGCCUGGAUCUGCCAACAGAGGAUUGAGCAUCA
B5: chr5:138511037:138511180:-|CDS|ENSG00000120705|unk|FALSE|unique (ssRNA)
RNA: GGGAGUUCUACAGUCCGACGAUCCACGGGCAAGUACUGUUUUGGCGUUGAAGAUACACUAAAGGCUUUGGAAAUGGGAGCUGUAGAAAUUCUAAUAGUCUAUGAAAAUCUGGAUAUAAUGAGAUAUGUUCUUCAUUGCCAAGGCAACAGAGGAUUGAGCAUCA
B6: chr10:92030311:92030412:+|3pUTR|ENSG00000095564|unk|FALSE|unique (ssRNA)
RNA: GGGAGUUCUACAGUCCGACGAUCAUAUAAGAUUGAAACUGUAAAAUAUAUGCAACUGUGUGUUAUUUGUAGGAAAUGGUCACUAGAAAGAGCAAAAGAUUAUUCAGGUAUACAGGUUUUUUUUCAUUGUUUAGGAUUUUAACUCAACAGAGGAUUGAGCAUCA
B7: chr3:115809552:115809653:-|3pUTR|ENSG00000185565|unk|total|mutant (ssRNA)
RNA: GGGAGUUCUACAGUCCGACGAUCCUCCCUCACCUCUCCUCACCUCCACCCCCUCCCCAGAGCACCCGUCAUGCCGCAAAUGCCCGGAAGUGCCAUUUUCAUUUUCUCCACUGUGCGUGUGUGCUCAAGUCUUUCGCUCUCACGCAACAGAGGAUUGAGCAUCA
B8: chr20:57607060:57607300:-|CDS|ENSG00000124256|control|control|control (ssRNA)
RNA: GGGAGUUCUACAGUCCGACGAUCCCUGUGAAUGUUGAUAGUUUGACCUCCUCCCAUGAAUCACAAAUGUUCUUAACGGCAUGUAGAUUGGUGAUCUUUUCCAGAAGAUUUUCAACUUACUUUGCCCAGAUCCAUCUGAGGAAUCAACAGAGGAUUGAGCAUCA
B9: chr5:76617584:76618642:-|CDS|ENSG00000164220|control|control|control (ssRNA)
RNA: GGGAGUUCUACAGUCCGACGAUCUGAUGGCUUAUAUUUUAUAUAUCUCAUAGCUUUGUGCCUGGGUAGUCUUAAUAGUUGCUUAGAUCCAUUCCUUUAUUUUCUCAUGUCAAAAACCAGAAAUCACUCCACUGCUUACCUUACCAACAGAGGAUUGAGCAUCA
B10: chr4:86814747:86814848:+|3pUTR|ENSG00000163629|unk|total|mutant (ssRNA)
RNA: GGGAGUUCUACAGUCCGACGAUCUACUUUAACCUAUGAUAAUUAUUUACAAAAUUUUAACACUAACCAAACAAUGCAGAUCUCCGGGAUGAUUAAAGGCAGCAUUUGAUGACCGCAGACAUUGUUACAAGGACAUGGUGAGUCCAACAGAGGAUUGAGCAUCA
B11: chr20:187888:188118:-|CDS|ENSG00000185982|control|control|control (ssRNA)
RNA: GGGAGUUCUACAGUCCGACGAUCCUUCAAUAAAGUAACAGGCUAUUGCAGGAAGAAAUGCAAGGUAGGAGAAAGAUAUGAAAUAGGAUGUCUAAGUGGGAAAUUAUGUUGUGCUAAUGAUGAAGAAGAGAAAAAACAUGUGUCCAACAGAGGAUUGAGCAUCA
B12: chr10:74120044:74120145:+|3pUTR|ENSG00000035403|msi1|FALSE|unique (ssRNA)
RNA: GGGAGUUCUACAGUCCGACGAUCAAAAAAAAUCCCUGAAUGAUGAUUAGAGACAUCACCGCUAAAAAACUACAUUUAUAAGCUAGGAUUUGUUAUAUGCAAAUAUUUUCUGCCUCUUCUUUUGUUCUGUUUAAAACAAUAAAACAACAGAGGAUUGAGCAUCA
B13: chr17:3662948:3663056:-|3pUTR|ENSG00000213977|unk|total|mutant (ssRNA)
RNA: GGGAGUUCUACAGUCCGACGAUCAGUUUGAUACAAAAUGUUUUUAUCGUACUCUUUGGAGAUGCCCAUUCUACUUUUGAAUUCCGCUUUUACUAAUUCGCAUCUGGAAGCUCAGCAAGUGCACAAGCCUUACUUUGGUUACCGCAACAGAGGAUUGAGCAUCA
B14: chr17:63354981:63355093:+|CDS|ENSG00000170921|unk|FALSE|bound_elsewhere (ssRNA)
RNA: GGGAGUUCUACAGUCCGACGAUCCAGUCAAGGGUCCUAUCUAUAUCUGAAACUUACAUUUGACCUCAUAGAGAAAGGCUAUCUAGUGUUAAAGAGCUCUAGCUACAAAGUAGUUCCUGUUUCGCUCUCAGAGGUUUAUUUACUCAACAGAGGAUUGAGCAUCA
B15: ENSG00000151892:stop:overlap|stop_codon|ENSG00000151892|stop_codon|NA|stop_codon (ssRNA)
RNA: GGGAGUUCUACAGUCCGACGAUCCACUGCUGGUCCUGGUGGUAACCGCUCUGUCCACCCUAUUAUCUUUAACAGAAACAUCAUAGCUGCAUUAAAAAAAUACAAUAUGGACAUGUAAAAAGACAAAAACCAAGUUAUCUGUUUCAACAGAGGAUUGAGCAUCA
B16: ENSG00000107863:be:win_5551|CDS|ENSG00000107863|bound_else_gene|NA|bound_elsewhere_windowed (ssRNA)
RNA: GGGAGUUCUACAGUCCGACGAUCGACUGGCUGGCCAGGGAACGCCUACGCACCAGUACCUCUGACCUUAGCAGAGGAGAAAUCGGAGAUCCCCAGACAGAGAACCCAAGCACACGAGAAAUAGCCACGACCGACACACCUUUGCAACAGAGGAUUGAGCAUCA
B17: chr4:86814747:86814848:+|3pUTR|ENSG00000163629|unk|FALSE|unique (ssRNA)
RNA: B10 RNA with C83U, C84A, C112U, C113A
B18: ENSG00000181035:stop:overlap|stop_codon|ENSG00000181035|stop_codon|NA|stop_codon (ssRNA)
RNA: GGGAGUUCUACAGUCCGACGAUCUGGGCAUCAGCUUCACCACCUUCGACCUCAUGCAGAUCCUGCUGCGGCACCUGCAGAGCUAGGGGACCCUGAGCUGCUCUCAGGACGGUGGACCGGUGACCCCUUUGUAUUCUGGGCCCACAACAGAGGAUUGAGCAUCA
B19: ENSG00000104805:stop:overlap|stop_codon|ENSG00000104805|stop_codon|NA|stop_codon (ssRNA)
RNA: GGGAGUUCUACAGUCCGACGAUCAGUUGAAGGAGGUGUGGGAGGAGCUGGAUGGACUGGACCCCAACAGCAUCCCAAAGUGCUAGGAUUACAGGCGUGAGUCACUGCGCCCGGCCUCGAAAGCCCUUUCUCUAUGGUGGAUCACAACAGAGGAUUGAGCAUCA
B20: ENSG00000198589:be:win_3201|CDS|ENSG00000198589|bound_else_gene|NA|bound_elsewhere_windowed (ssRNA)
RNA: GGGAGUUCUACAGUCCGACGAUCAACUGGCAAAGAUUCAAUGACUGUCAGUGAAGUAACUGCUUCUAUAAGUUCUCCUUCAGAAGAGGAUGCCUCAGAGAUGCCAGAAUUCUUGGAUAAAUCUAUAGUAGAGGAAGAGGAAGACAACAGAGGAUUGAGCAUCA
B21: chr2:10440579:10440691:-|3pUTR|ENSG00000115758|unk|FALSE|unique (ssRNA)
RNA: GGGAGUUCUACAGUCCGACGAUCUAACUGCAAGUUUAGCUUGAAUUAAGGGAUUUGGGGGGACCAUGUAACUUAAUUACUGCUAGUUUUGAAAUGUCUUUGUAAGAGUAGGGUCGCCAUGAUGCAGCCAUAUGGAAGACUAGGCAACAGAGGAUUGAGCAUCA
B22: chr2:88557131:88557241:-|3pUTR|ENSG00000172071|msi1|total|mutant (ssRNA)
RNA: GGGAGUUCUACAGUCCGACGAUCGAGGACAAGCCGCACAAACUGUAUAACGGUUUAUGUCCGCCGUUUUACCGUCCUAUUUGCCGCAUUCAACCGCUUUAUUCCUCCGAUGGUUCCCGGGUGGGUUUACAGCUUUUUGUACUUCAACAGAGGAUUGAGCAUCA

biological target: T1, UNK ZnF1-6 (called full-length); test: nsRBNS (natural sequence RNA bind-n-seq); RBNS binding buffer (assumed for nsRBNS): 25 mM Tris pH 7.5, 150 mM KCl, 3 mM MgCl2, 0.01% Triton X-100, 500 ug/ml BSA, 20 U/ml SUPERase-In, 4 C; UNK is unkempt and MSI1 is Musashi-1; names of the RNAs are library labels; protein concentration not given here; high values mean tight binding

Point of comparison: B21, binding signal 1.12 enrichment R. Against it:
- B1 — higher, 3.22 enrichment R
- B2 — higher, 1.15 enrichment R
- B3 — lower, 0.394 enrichment R
- B4 — higher, 2.09 enrichment R
- B5 — higher, 2.32 enrichment R
- B6 — higher, 3.36 enrichment R
- B7 — higher, 1.88 enrichment R
- B8 — lower, 0.274 enrichment R
- B9 — higher, 4.63 enrichment R
- B10 — higher, 5.91 enrichment R
- B11 — lower, 0.651 enrichment R
- B12 — higher, 1.24 enrichment R
- B13 — lower, 0.437 enrichment R
- B14 — lower, 0.385 enrichment R
- B15 — lower, 0.417 enrichment R
- B16 — lower, 0.902 enrichment R
- B17 — higher, 4.37 enrichment R
- B18 — higher, 1.2 enrichment R
- B19 — lower, 0.682 enrichment R
- B20 — lower, 0.614 enrichment R
- B22 — lower, 0.471 enrichment R
